Measured values from PubChem BioAssay AID485344 (National Center for Advancing Translational Sciences (NCATS), 2010).
About 6,900 (2%) of roughly 340,000 compounds were called active. Rule as the data show it: active = inhibition above about 30%; inactive = below that, where a call was filed. This is a selection; strong and weak results do not stand in their true shares. Where no call is shown, the source filed none.
Also: 0% is about no effect.

Each compound was assayed against D(2) dopamine receptor (Homo sapiens) (UniProt P14416) (assay: HTS Assay for Allosteric Antagonists of the Human D2 Dopamine Receptor: Primary Screen for Antagonists). Settings: HEK293 TREx D2 cells, calcium flux, dopamine EC80; at 10 µM; stronger effect = higher value.
UniProt P14416, sequence (P14416 whole entry, looked up): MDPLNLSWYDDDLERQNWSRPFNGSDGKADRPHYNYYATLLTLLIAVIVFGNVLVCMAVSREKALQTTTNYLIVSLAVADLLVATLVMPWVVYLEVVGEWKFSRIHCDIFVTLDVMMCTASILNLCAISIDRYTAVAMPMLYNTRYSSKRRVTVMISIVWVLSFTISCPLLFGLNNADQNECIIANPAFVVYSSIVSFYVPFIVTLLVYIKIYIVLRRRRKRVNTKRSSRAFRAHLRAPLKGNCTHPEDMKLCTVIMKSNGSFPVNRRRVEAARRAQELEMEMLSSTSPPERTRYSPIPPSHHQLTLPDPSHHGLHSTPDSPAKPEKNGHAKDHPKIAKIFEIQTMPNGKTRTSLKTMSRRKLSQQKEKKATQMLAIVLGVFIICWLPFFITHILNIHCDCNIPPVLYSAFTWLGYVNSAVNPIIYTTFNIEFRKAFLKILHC
Procedure, shortened: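 Dopamine at EC80 is the agonist stimulus; test compounds precede it by 180 s. Calcium flux read kinetically in a force-coupled, inducible HEK293 T-REx D2 cell line.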
For `CC(C)CCNC(=O)CSc1nc2ccsc2c(=O)n1Cc1ccccc1Cl`, the inhibition was -16.3%. `COc1ccc(-c2noc(-c3ccccc3NC(=O)c3cc(OC)c(OC)c(OC)c3)n2)cc1` showed an inhibition of 4.06%. For `O=S(=O)(Nc1nc2n(n1)C(c1ccccc1)C=C(c1ccc(Cl)cc1)N2)c1ccccc1` (stereo not given), the inhibition was 1.09%. `Cc1ccc(CNC(=O)CN(c2cc(C)cc(C)c2)S(=O)(=O)c2c(C)[nH]c(=O)[nH]c2=O)cc1` gave an inhibition of 1.79%. With `Cc1ccc(N2CCN(C(=O)c3nn(C)c4c3CSc3ccccc3-4)CC2C)cc1` (stereo not given) the inhibition was 3.66%. In the case of `CCOc1ccc(-c2ccc(CO)o2)cc1N`, the inhibition is reported as -4.96%. In the case of `CCc1cccc(NC(=O)CCS(=O)(=O)c2ccc(C)cc2)c1`, the inhibition is reported as 22%. `CCc1ccc(C2c3c(n[nH]c3C)C(=O)N2c2ccc(C)cc2)cc1` (stereo not given) gave an inhibition of -5.08%. In the case of `O=C(NC1CCCC1)c1ccc2c(c1)N(Cc1ccc(F)cc1)C(=O)c1ccccc1S2`, the inhibition is reported as -2.49%. In the case of `CCN1C(=O)CC(C(=O)Nc2ccc(OC)cc2)SC1=Nc1ccc(C)c(C)c1` (stereo not given), the inhibition is reported as 4.81%. Compound `O=C(NCCC1=CCCCC1)c1ccc2c(c1)N(Cc1ccccc1)C(=O)c1ccccc1S2(=O)=O` has an inhibition of -15.1%. Compound `CCOC(=O)c1noc2ncn(CC(=O)O)c(=O)c12` has an inhibition of -5.53%. `O=C(Cn1cc(SCc2ccccc2Cl)c2ccccc21)N1CCCCCC1` was tested, and the inhibition was 10.7%. Compound `COc1ccc(OC)c(CNS(=O)(=O)c2ccc(-c3cc(C(F)(F)F)on3)s2)c1` has an inhibition of 4.63%. In the case of `O=C(NCCN1C(=O)S/C(=C\c2ccccc2)C1=O)C1CCN(S(=O)(=O)c2cccs2)CC1`, the inhibition is reported as active: 33.4%. In the case of `COc1ccc(NC(=O)C(c2ccc(OC)cc2)N(C)C(=O)CNC(C)=O)cc1` (stereo not given), the inhibition is reported as active: 38.2%. `O=C(Nc1ccc2c(c1)N(C1CCCC1)C(=O)c1ccccc1S2)c1ccccc1` showed an inhibition of -10.8%. In the case of `COc1ccc(F)cc1C(=O)C1CCCN(Cc2ccc(Oc3ncccn3)cc2)C1` (stereo not given), the inhibition is reported as active: 48.9%. With `Cc1ccc(SCC(=O)Nc2ccc3oc(-c4cccc(C)c4)nc3c2)cc1` the inhibition was -0.125%. In the case of `COc1ccc(CCNC(=O)C(=O)NCC(c2cccs2)S(=O)(=O)c2ccccc2)cc1` (stereo not given), the inhibition is reported as 17.7%. Compound `COc1cccc(-c2nc(CS(=O)CC(=O)N3CCN(c4cccc(C(F)(F)F)c4)CC3)c(C)o2)c1` (stereo not given) has an inhibition of 16%. `Cc1ccc(Cl)cc1NC(=O)CCS(=O)(=O)c1ccc(Br)s1` gave an inhibition of 3.88%. Compound `Cc1ccc(Cn2c(=O)c3ccccc3n3c(-c4ccccc4)nnc23)cc1` has an inhibition of 12%. `COc1ccc(CCN(Cc2cc3cccc(C)c3[nH]c2=O)C(=O)NC2CCCCC2)cc1OC` was tested, and the inhibition was active: 31.3%. Compound `CCc1ccc(CNC(=O)CSCc2cnn(-c3ccccc3)c2-n2cccc2)cc1` has an inhibition of 4.09%. Compound `COc1ccc(C2CC(=O)N3CN(C4CCCCC4)CSC3=C2C#N)cc1` (stereo not given) has an inhibition of 21.6%. `Cc1ccc(OCC(=O)Nc2ccc3nc(SCC(=O)N4CCCC4)sc3c2)cc1C` gave an inhibition of -4.01%. In the case of `COc1ccc(NC(=O)CCCS(=O)(=O)c2nc(-c3ccc(OC)c(OC)c3)cc(C(F)(F)F)n2)cc1OC`, the inhibition is reported as 11.3%. Compound `CCC1CN(C(=O)NCc2ccc(F)cc2)c2ccccc2O1` (stereo not given) has an inhibition of 14.4%. `Cc1ccc(N2CCN(CC(O)COc3ccccc3)CC2)cc1` (stereo not given) was tested, and the inhibition was active: 38.9%. In the case of `Cc1ccc(NC(=O)c2ccco2)c(OCc2cc(=O)n3cc(C)sc3n2)c1`, the inhibition is reported as 7.46%. Work on `CN(C)c1ccc(CN(CC2CCCO2)C(=O)COc2ccc(Cl)cc2)cc1` (stereo not given) yielded an inhibition of 0.501%. `Cc1nc(N2CCCC2)ncc1C(=O)Nc1ccccc1` showed an inhibition of -5.09%. `CC(C)CC(=O)Nc1ccc(C(=O)OCc2cc(=O)n3nc(C4CCCCC4)sc3n2)cc1` gave an inhibition of 0.943%. `COc1ccccc1NC(=O)CSc1ncc2c(n1)-c1cc(Cl)ccc1N(C)S2(=O)=O` showed an inhibition of -5.81%. In the case of `Cc1cc(C)n(CCn2nc(C)cc2C)n1`, the inhibition is reported as active: 40.7%. With `COc1cccc(CN2C(=O)c3ccccc3C2C(=O)NCCc2ccc(OC)c(OC)c2)c1` (stereo not given) the inhibition was 7.18%. Compound `CC(=O)N1CCCc2cc(S(=O)(=O)N3CCCC(C(=O)NCc4ccc(Cl)cc4)C3)ccc21` (stereo not given) has an inhibition of -1.03%. In the case of `Cc1cc(O)c(C(c2cccc(Cl)c2)N2CCN(c3ccccc3)CC2)c(=O)n1Cc1ccco1` (stereo not given), the inhibition is reported as -6.54%. For `CCCn1c(=O)c2sccc2n2c(CCCC(=O)NCCOC)nnc12`, the inhibition was 0.054%. For `O=C(c1cccs1)N1CCN(C/C=C/c2ccccc2)CC1`, the inhibition was active: 69.4%. For `COc1cc(C(C)=O)ccc1OCC(O)CN1CCN(c2ccc(F)cc2)CC1` (stereo not given), the inhibition was active: 40.1%. `Cc1ccc([N+](=O)[O-])c(NC(=O)COC(=O)C2CC3CCCC(C2)C3=O)c1C` (stereo not given) was tested, and the inhibition was active: 36.4%. `CN(C)c1ccc(CNc2nc(-c3ccco3)nn2C(=O)c2cccc([N+](=O)[O-])c2)cc1` was tested, and the inhibition was -19.6%. For `CCOc1ccc(-n2c(SCc3nc(-c4ccccc4C)no3)nnc2-c2ccccc2)cc1`, the inhibition was 3.66%. `Cc1ccc(S(=O)(=O)c2nnn3c2nc(Nc2ccc(C(C)C)cc2)c2sccc23)cc1C` was tested, and the inhibition was 14.6%. For `CC(C)Cc1nn2c(=O)cc(COC(=O)c3ccccc3NC(=O)c3ccccc3)nc2s1`, the inhibition was 14.5%. `COCCCn1c(=N)c(C(=O)NC2CCCC2)cc2c(=O)n3ccccc3nc21` gave an inhibition of 16%. Work on `Cc1ccc(CCNC(=O)CCSCc2ccc(Cl)cc2)cc1` yielded an inhibition of -3.11%. `Cc1ccc(-c2nc3c4cnn(-c5cc(Cl)ccc5Cl)c4ncn3n2)cc1` was tested, and the inhibition was 0.81%. Work on `Cc1nc2nc(SCC(=O)NC(C)c3ccccc3)nn2c(C)c1Cc1c(F)cccc1Cl` (stereo not given) yielded an inhibition of 8.76%. For `CCN(c1ccccc1C(=O)O)S(=O)(=O)c1cccc2nsnc12`, the inhibition was active: 30.6%. Compound `COC(=O)c1ccc(NC(=O)CC2C(=O)N(c3cccc(OC)c3)C(=O)N2Cc2cccc(OC)c2)cc1` (stereo not given) has an inhibition of 8.79%. With `CCOc1ccc(CN2C(=O)c3ccccc3Sc3ccc(C(=O)NCc4ccc(C)cc4)cc32)cc1` the inhibition was -27.5%. With `CC(=O)NC(CC(=O)OCC(=O)N1c2ccccc2NC(=O)C1(C)C)c1ccccc1` (stereo not given) the inhibition was active: 52.4%. `O=C(CSc1oc(-c2ccco2)nc1S(=O)(=O)c1ccc(Cl)cc1)c1ccccc1` was tested, and the inhibition was 11.1%. `COc1cccc(CSc2nc3n(n2)C(c2ccccc2C)C(C(=O)Nc2ccccc2OC)=C(C)N3)c1` (stereo not given) gave an inhibition of 2.2%. In the case of `Nc1cnccc1C(=O)O`, the inhibition is reported as active: 42.6%. With `CCCCC12CN3CC(C)(CN(C1)C3c1c(C)[nH]c(=O)[nH]c1=O)C2=O` (stereo not given) the inhibition was 12.2%. In the case of `Cc1cccc(CS(=O)(=O)Cc2ccc(C(=O)NCc3ccc(Cl)cc3)o2)c1`, the inhibition is reported as -16.9%.
